{
  "source": "the supplement of paper PMC3334620",
  "note": "In all, about 33,000 sequences were measured (“E-score (-0.5 to 0.5)”: median about -0.017, highest 2% from about 0.3 on). This is one part of the list.",
  "data": [
    {"target": "T1, Sut1 (UniProt P53032)", "T1 sequence": "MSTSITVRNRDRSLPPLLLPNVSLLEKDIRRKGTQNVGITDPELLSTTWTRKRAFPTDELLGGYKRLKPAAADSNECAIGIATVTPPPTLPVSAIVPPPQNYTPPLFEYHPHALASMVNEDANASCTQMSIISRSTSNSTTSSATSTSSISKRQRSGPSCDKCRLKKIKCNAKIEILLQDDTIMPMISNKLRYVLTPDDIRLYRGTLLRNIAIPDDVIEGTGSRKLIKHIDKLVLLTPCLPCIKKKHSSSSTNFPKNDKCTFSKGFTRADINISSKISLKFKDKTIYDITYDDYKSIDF", "assay": "PBM E-score (8-mer binding enrichment) (E-score (-0.5 to 0.5)); higher = stronger / more preferred TF binding; most listed sequences are background and not binding sites", "conditions": "protein concentration: 200 nM; construct: GST-full length", "summary_of_the_method": "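Full-length yeast transcription factors or their DNA-binding domains, GST-tagged and expressed with PURExpress, were applied at about 100-200 nM to universal all-10-mer Agilent arrays. These arrays had been made double-stranded by primer extension on fresh or once-stripped slides. Detection used fluorescent anti-GST, normalisation used masliner, and E-scores for ungapped eight-base words pooled with reverse complements came from the Universal PBM Analysis Suite.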", "values": [
      {"sequence": "GAGACCGC", "PBM E-score": -0.234},
      {"sequence": "CTACCCCA", "PBM E-score": -0.204},
      {"sequence": "ACCGCTCT", "PBM E-score": -0.0711},
      {"sequence": "AGCAGCGG", "PBM E-score": -0.275},
      {"sequence": "CTGATCTA", "PBM E-score": -0.0878},
      {"sequence": "CCCGGTCG", "PBM E-score": -0.0685},
      {"sequence": "ATGGCTCC", "PBM E-score": -0.0131},
      {"sequence": "AAACGTTC", "PBM E-score": -0.125},
      {"sequence": "CAGCAACG", "PBM E-score": 0.11},
      {"sequence": "GGACGACC", "PBM E-score": -0.232},
      {"sequence": "AGCTGAGA", "PBM E-score": -0.137},
      {"sequence": "AGCTAGAA", "PBM E-score": -0.0234},
      {"sequence": "TAAAGTTA", "PBM E-score": 0.254},
      {"sequence": "GAGGCTCC", "PBM E-score": 0.0186},
      {"sequence": "CCGCGACC", "PBM E-score": -0.177},
      {"sequence": "AAATTGCC", "PBM E-score": 0.106},
      {"sequence": "AGCCACGC", "PBM E-score": -0.0742},
      {"sequence": "AAGTTCCA", "PBM E-score": 0.0223},
      {"sequence": "ATAGTTTG", "PBM E-score": 0.152},
      {"sequence": "CAAGGGCC", "PBM E-score": -0.122},
      {"sequence": "CCCGCAGA", "PBM E-score": -0.178},
      {"sequence": "ATGCGAGG", "PBM E-score": -0.0857},
      {"sequence": "GCGGTTTA", "PBM E-score": -0.0658},
      {"sequence": "ATGCGATA", "PBM E-score": 0.0196},
      {"sequence": "AATCCTAG", "PBM E-score": 0.124},
      {"sequence": "GCCTTGAA", "PBM E-score": -0.0567},
      {"sequence": "TCTACACA", "PBM E-score": 0.079},
      {"sequence": "AAAACCCC", "PBM E-score": 0.137},
      {"sequence": "CAAATGAA", "PBM E-score": 0.129},
      {"sequence": "TCCCCCCA", "PBM E-score": -0.32},
      {"sequence": "GAAACTAA", "PBM E-score": 0.00617},
      {"sequence": "GCTATGAA", "PBM E-score": 0.103},
      {"sequence": "GTCCAGTA", "PBM E-score": -0.0627},
      {"sequence": "ATTGTACG", "PBM E-score": 0.124},
      {"sequence": "AACACAAT", "PBM E-score": 0.16},
      {"sequence": "ATACACGC", "PBM E-score": 0.08},
      {"sequence": "ATCGGGTG", "PBM E-score": -0.0939},
      {"sequence": "CTGCCCCA", "PBM E-score": -0.257},
      {"sequence": "AAGGTATC", "PBM E-score": -0.0221},
      {"sequence": "CTGGCGTA", "PBM E-score": -0.34},
      {"sequence": "CTATGGTC", "PBM E-score": -0.201},
      {"sequence": "AATCCGCA", "PBM E-score": 0.00046},
      {"sequence": "TCCGGTCA", "PBM E-score": 0.159},
      {"sequence": "AATGTGCT", "PBM E-score": 0.0947},
      {"sequence": "AGGGCCTA", "PBM E-score": -0.0494},
      {"sequence": "CTGGCATC", "PBM E-score": -0.305},
      {"sequence": "ACGCTTTC", "PBM E-score": -0.202},
      {"sequence": "CACCTTGC", "PBM E-score": 0.00165},
      {"sequence": "AAGGGAGA", "PBM E-score": -0.2},
      {"sequence": "CAAACAAA", "PBM E-score": 0.161},
      {"sequence": "TGGCTACA", "PBM E-score": 0.05},
      {"sequence": "CTCATCAC", "PBM E-score": -0.135},
      {"sequence": "GATCATGA", "PBM E-score": 0.0977},
      {"sequence": "GCTGCATA", "PBM E-score": -0.132},
      {"sequence": "AATGGCCA", "PBM E-score": 0.0267},
      {"sequence": "ACCCCGAT", "PBM E-score": 0.342},
      {"sequence": "AGCTTTCA", "PBM E-score": -0.064},
      {"sequence": "AAGTGCTA", "PBM E-score": -0.0562},
      {"sequence": "GGTTGGAC", "PBM E-score": -0.158},
      {"sequence": "CGACGGTC", "PBM E-score": -0.203},
      {"sequence": "CAAACAGC", "PBM E-score": -0.0993},
      {"sequence": "AGCGTCGA", "PBM E-score": -0.059},
      {"sequence": "TCCACTAA", "PBM E-score": 0.0668},
      {"sequence": "CTGGGTAA", "PBM E-score": -0.0456},
      {"sequence": "CGCCCGAG", "PBM E-score": -0.0717},
      {"sequence": "ATAACATA", "PBM E-score": 0.273},
      {"sequence": "ACTGCGTA", "PBM E-score": -0.133},
      {"sequence": "ACTCCTAA", "PBM E-score": 0.121},
      {"sequence": "CGCGCAAA", "PBM E-score": 0.14},
      {"sequence": "AAGGGCCA", "PBM E-score": -0.132},
      {"sequence": "GGTGCGAA", "PBM E-score": -0.0547},
      {"sequence": "TCGACACA", "PBM E-score": -0.129},
      {"sequence": "ATAGAGTA", "PBM E-score": 0.117},
      {"sequence": "AAGATAGT", "PBM E-score": 0.15},
      {"sequence": "GGTTCAAC", "PBM E-score": -0.104},
      {"sequence": "GAACACGA", "PBM E-score": 0.0455},
      {"sequence": "ACAAGCCG", "PBM E-score": -0.0378},
      {"sequence": "ATCTTATA", "PBM E-score": 0.248},
      {"sequence": "CCCAGATA", "PBM E-score": -0.106},
      {"sequence": "ATTGACCG", "PBM E-score": 0.0305},
      {"sequence": "CAACGCGG", "PBM E-score": -0.0646},
      {"sequence": "ACAGCCGC", "PBM E-score": -0.166},
      {"sequence": "ACCATTCA", "PBM E-score": 0.0202},
      {"sequence": "ACTTTGTC", "PBM E-score": 0.0345},
      {"sequence": "CCAGCTCA", "PBM E-score": -0.182},
      {"sequence": "GGGGCGTA", "PBM E-score": -0.167},
      {"sequence": "CACTACCG", "PBM E-score": -0.127},
      {"sequence": "CCGGCTGA", "PBM E-score": 0.0215},
      {"sequence": "TCGTACAA", "PBM E-score": 0.156},
      {"sequence": "AAGAAAAG", "PBM E-score": 0.116},
      {"sequence": "CCAAGCCA", "PBM E-score": -0.151},
      {"sequence": "GAAGGCCA", "PBM E-score": -0.194},
      {"sequence": "AATAACAA", "PBM E-score": 0.121},
      {"sequence": "CACTACTG", "PBM E-score": -0.204},
      {"sequence": "CGTCTGAG", "PBM E-score": 0.0162},
      {"sequence": "CGATAAGA", "PBM E-score": 0.169},
      {"sequence": "ATAATTGC", "PBM E-score": 0.106},
      {"sequence": "CAACGTAA", "PBM E-score": -0.122},
      {"sequence": "AGAGTTGG", "PBM E-score": 0.0456},
      {"sequence": "GGTGGCAA", "PBM E-score": -0.167},
      {"sequence": "CATGTCTC", "PBM E-score": -0.0334},
      {"sequence": "CAAGGTAC", "PBM E-score": -0.114},
      {"sequence": "CGTTCATC", "PBM E-score": 0.0239},
      {"sequence": "ATACGTAC", "PBM E-score": 0.0236},
      {"sequence": "AAGAAGTG", "PBM E-score": -0.0202},
      {"sequence": "ATTACAGA", "PBM E-score": 0.139},
      {"sequence": "AGGGGACA", "PBM E-score": -0.229},
      {"sequence": "ATTGTAGG", "PBM E-score": 0.193},
      {"sequence": "CCCTGGAG", "PBM E-score": -0.353}
    ]}
  ]
}
